In the antibiotic and cytotoxicity screens of Wong et al. (2023):
The list shows a part of the results.

Test system: S. aureus RN4220
Assay: growth inhibition call (relative growth <= 0.2)
Conditions: 50 µM

Growth inhibition call, inactive:
COc1ccc(CN(C)C[C@H]2OCCCC[C@H](C)Oc3ccc(NC(=O)Nc4ccccc4)cc3C(=O)N([C@@H](C)CO)C[C@@H]2C)cc1
C[C@@H]1CN([C@H](C)CO)C(=O)Cc2cc(NC(=O)Cc3cn(C)c4ccccc34)ccc2O[C@@H]1CN(C)C
CC(C)NC(=O)N(C)C[C@H]1OCCCC[C@@H](C)Oc2ccc(NC(=O)Nc3ccccc3)cc2C(=O)N([C@H](C)CO)C[C@@H]1C
Cc1ccc(S(=O)(=O)N(C)C[C@@H]2Oc3ccc(NC(=O)C4CC4)cc3CC(=O)N([C@H](C)CO)C[C@@H]2C)cc1
C[C@H]1CN([C@@H](C)CO)C(=O)CCCn2cc(nn2)CO[C@@H]1CN(C)S(=O)(=O)c1ccc(-c2ccccc2)cc1
C[C@H](CO)N1C[C@H](C)[C@H](CN(C)Cc2ccncc2)Oc2cc(C#CC(C)(C)O)ccc2S1(=O)=O
C[C@@H]1CCCCO[C@@H](CN(C)S(=O)(=O)c2ccc(Cl)cc2)[C@H](C)CN([C@H](C)CO)C(=O)c2cc(NC(=O)c3ccccc3)ccc2O1
Nc1nnc([C@H]2CCCO2)s1
C[C@@H]1CN([C@H](C)CO)C(=O)c2cc(NS(=O)(=O)c3cccs3)ccc2O[C@@H](C)CCCCO[C@@H]1CN(C)S(=O)(=O)c1cn(C)cn1
C[C@@H]1CCCCO[C@@H](CN(C)C(=O)Nc2ccc(F)cc2)[C@@H](C)CN([C@H](C)CO)C(=O)c2cc(NC(=O)Nc3ccc4c(c3)OCO4)ccc2O1
O=C(C[C@@H]1C=C[C@H](NC(=O)Nc2cc(F)ccc2F)[C@@H](CO)O1)NCCCN1CCOCC1
C[C@H]1CN([C@@H](C)CO)C(=O)c2cc(NC(=O)Nc3ccc(C(F)(F)F)cc3)ccc2O[C@H]1CN(C)Cc1ccc(C(=O)Nc2ccccc2N)cc1
Cc1ccc(S[C@]2(C(=O)NC3CC3)CC(=O)N(Cc3ccccc3C(F)(F)F)[C@@H]2c2ccc(CO)cc2)cc1
C[C@H]1CN([C@@H](C)CO)C(=O)c2cc(NC(=O)C3CC3)ccc2O[C@@H]1CN(C)Cc1ccc(Oc2ccccc2)cc1
C[C@H](CO)N1C[C@H](C)[C@H](CN(C)S(=O)(=O)c2ccc(F)cc2)Oc2cc(C#Cc3ccc(F)cc3)ccc2S1(=O)=O
C=COCCCCO
C(=N\c1ccc2ccccc2c1)/Nc1ccc2ccccc2c1
COc1ccc(S(=O)(=O)N(C)C[C@@H]2OCCCC[C@H](C)Oc3ccc(NC(=O)Nc4cccc5ccccc45)cc3C(=O)N([C@H](C)CO)C[C@@H]2C)cc1
C[C@H](CO)N1C[C@H](C)[C@@H](CN(C)C(=O)c2ccccc2)OCCCC[C@H](C)Oc2ccc(NC(=O)C3CCCCC3)cc2C1=O
COc1ccc(S(=O)(=O)N(C)C[C@@H]2OCCCC[C@H](C)Oc3ccc(NC(=O)Nc4cccc5ccccc45)cc3C(=O)N([C@@H](C)CO)C[C@H]2C)cc1
Cc1ccc(C(=O)NCCN2CCNC2=O)cc1
COc1ccc2c3c(n(c2c1)C)[C@H](CO)N(CC1CCCCC1)C[C@]13CCN(CC1)Cc1nccs1
COc1cc(NC(=O)CCN2CCC(OC(=O)Nc3ccccc3-c3ccccc3)CC2)c(Cl)cc1CNC[C@H](O)c1ccc(O)c2nc(O)ccc12
CCS(=O)(=O)NCC[C@H]1CC[C@H](NS(=O)(=O)c2cccc(F)c2)[C@H](CO)O1
C[C@@H]1CN([C@H](C)CO)S(=O)(=O)c2ccc(-c3ccc(F)cc3)cc2O[C@H]1CN(C)S(C)(=O)=O
C[C@@H]1CN([C@@H](C)CO)C(=O)c2cccc(NC(=O)c3nc4ccccc4s3)c2O[C@@H]1CN(C)Cc1ccc(Cl)c(Cl)c1
COCC#Cc1cnc2c(c1)C(=O)N([C@H](C)CO)C[C@@H](C)[C@H](CN(C)S(=O)(=O)c1cn(C)cn1)O2
CN(C)CC(=O)N1[C@@H]2c3ccc(-c4ccccc4)c(=O)n3C[C@H]1[C@H](CO)[C@H]2C(=O)N1CCOCC1
CC(C)NC(=O)Nc1ccc2c(c1)C(=O)N([C@H](C)CO)C[C@@H](C)[C@@H](CN(C)CC1CCCCC1)OCCCC[C@H](C)O2
COC(=O)C1=CO[C@@H](O[C@@H]2O[C@H](CO)[C@@H](O)[C@H](O)[C@H]2O)[C@@H]2[C@@H](CO)C=C[C@H]12
COC1=C(N)C(=O)c2nc(-c3nc(C(=O)O)c(C)c(-c4ccc(OC)c(OC)c4O)c3N)ccc2C1=O
Cc1noc(C)c1NC(=O)N(C)C[C@H]1Oc2ccc(NS(=O)(=O)c3c(C)noc3C)cc2CC(=O)N([C@H](C)CO)C[C@H]1C
Cc1ncc([N+](=O)[O-])n1C[C@@H](CN1CCOCC1)OP(=O)(O)O
C[C@H]1CN([C@@H](C)CO)C(=O)c2cccc(NC(=O)Nc3ccc(C(F)(F)F)cc3)c2O[C@@H]1CN(C)C(=O)NC1CCCCC1
C[C@H]1O[C@@H](OC[C@H]2O[C@@H](OC[C@]3(C)[C@H]4CC[C@@]5(C)[C@H](CC[C@H]6C7=CC(C)(C)CC[C@]7(C(=O)O)CC[C@@]65C)[C@@]4(C)CC[C@@H]3O)[C@@H](O)[C@@H](O)[C@@H]2O)[C@@H](O)[C@@H](O)[C@@H]1O
CC(C)NC(=O)Nc1ccc2c(c1)C(=O)N([C@@H](C)CO)C[C@@H](C)[C@H](CN(C)Cc1ccc(C(=O)O)cc1)O2
CC(=O)N[C@@H]1[C@@H](O)[C@H](O)[C@H](CO)O[C@@H]1O
Cc1noc(C)c1NC(=O)N(C)C[C@@H]1OCCCC[C@@H](C)Oc2ccc(NS(=O)(=O)c3ccc(F)cc3)cc2C(=O)N([C@H](C)CO)C[C@H]1C
C[C@H]1NC(=O)[C@H](Cc2ccccc2)NC(=O)[C@@]23C(=O)N[C@@H](Cc4ccccc4)[C@@H]2[C@H](C)[C@@]2(C)O[C@H]2[C@H]3/C=C/C/C=C\CNC1=O
Nc1cccc(C2=NCCN2)c1
